According to patent US4851426A, “Ethoxycarbonyloxy ethyl esters of non-steroidal anti-inflammatory carboxylic acids and pharmaceutical compositions thereof” (Teva Pharmaceutical Industries, Ltd., priority 1982, dated 1989):
At least one read-out could not be matched to a standard name with certainty.

What was measured:
[1] = test system: carrageenin-induced rat-paw oedema; experiment: Carrageenin-oedema Test; type: in vivo; conditions: for % activity vs. parent compound: oedema inhibition at 3 hrs, relative to parent, doses as % inhibition; for % inhibition of oedema 3 hrs: rat, p.o. 1 hour before carrageenin, mg/kg parent/ester: indomethacin 5.0/6.6, diclofenac 4.0/5.6, acetylsalicylic acid 100.0/164.0, ibuprofen 25.0/39.0, naproxen 20.0/30.0
[2] = test system: adjuvant-injected rat-paw oedema; experiment: Adjuvant arthritis test (chronic inflammation); type: in vivo; conditions: Day 31 after 10 daily p.o. doses, mg/kg parent/ester: indomethacin 2.0/2.6, diclofenac 2.0/2.8, acetylsalicylic acid 200.0/330.0, ibuprofen 60.0/94.0, naproxen 10.0/15.1; for Mean paw swelling: control 15.3

| Compound | % activity vs. parent compound [1] [%] | % inhibition of oedema 3 hrs [1] [%] | % inhibition of swelling compared to controls [2] [%] | Mean paw swelling [2] |
| --- | --- | --- | --- | --- |
| CCOC(=O)OC(C)OC(=O)C(C)c1ccc2cc(OC)ccc2c1 (single isomer, unassigned; (+)) [Naproxen-ECOE ester, (+)-6-Methoxy-α-methyl-2-naphthaleneacetic acid 1'-ethoxycarbonyloxy ethyl ester] | 138.9 | 28.0 | 28.8 | 10.9 m units read off micrometer |
| CCOC(=O)OC(C)OC(=O)Cc1ccccc1Nc1c(Cl)cccc1Cl (stereo not drawn) [Diclofenac-ECOE ester] | 88 | 34.6 | 28.8 | 10.9 m units read off micrometer |
| CCOC(=O)OC(C)OC(=O)C(C)c1ccc(CC(C)C)cc1 (stereo not drawn) [Ibuprofen-ECOE ester, α-Methyl-4-(2-methylpropyl)benzene--acetic acid 1'-ethoxycarbonyloxy ethyl ester] | 107.59 | 48.9 | 32.0 | 10.4 m units read off micrometer |
| CC(C)Cc1ccc(C(C)C(=O)O)cc1 (stereo not drawn) [Ibuprofen, reference compound] | 100 | 44.7 | 32.8 | 10.3 m units read off micrometer |
| CCOC(=O)OC(C)OC(=O)Cc1c(C)n(C(=O)c2ccc(Cl)cc2)c2ccc(OC)cc12 (stereo not drawn) [Indomethacin-ECOE ester, 1-(p-Chlorobenzoyl)-5-methoxy-2-methylindole-3-acetic acid 1'-ethoxycarbonyloxy ethyl ester] | 100 | 65.1 | 35.3 | 9.9 m units read off micrometer |
| CCOC(=O)OC(C)OC(=O)c1ccccc1OC(C)=O (stereo not drawn) [Aspirin-ECOE ester, 1'-ethoxy carbonyloxy ethyl ester of 2-(acetyloxy)benzoic acid (Aspirin)] | 64.24 | 20.2 | 19.0 | 12.4 m units read off micrometer |
